Over roughly 13,000 compounds, “IFI” has its median near 4; the highest 2% begin near 17. The list shows a part of the results. Residues, ends and D or L forms follow the SMILES beside them. *: point of attachment. Octanoyl = CCCCCCCC(=O)*

The assay is described as follows: GSK_TCMDC: Inhibition Frequency Index (IFI). The number of non-kinase HTS assays where a compound showed > 50 % inhibition, expressed as a percentage of the number of such assays in which the compound was tested (-0 is zero). The assay is classed as functional.
Turning to `NCc1ccc(CNCc2cccc(-c3ccc(-c4nc5ccccc5[nH]4)cc3)c2)cc1`, the IFI came out at 8.82%.
In turn, `CCCCCCCN(Cc1ccc(OC(C)(C)C(=O)OCC)cc1)C(=O)Cc1ccc(F)cc1F` registered an IFI of 3.65%.
Then `COc1ccc(CNC2Cc3ccccc3C2)cc1-c1ccc(S(=O)(=O)NCc2ccccc2)s1`, with 12.3%; and `CCCCCCNC(=O)c1nn(CCN2CCC(N3CCCC3)CC2)cc1-c1ccc(Cl)c(Cl)c1`, with 6.71%.
In turn, `Cc1ccc(C2CCN(CCCCNC(=O)c3ccc(NC(=O)c4ccc(Cl)cc4)cc3)CC2)c(OCC(F)(F)F)c1` returned an IFI of 4.51%.
Then `CCc1c[nH]c2c(N3CCCCS3(=O)=O)cc(C(=O)N[C@@H](Cc3ccccc3)[C@H](O)CNCc3cccc(OC)c3)cc12`, with 2.86%; and `CS(=O)(=O)c1ccc2[nH]c(-c3cc(-c4cccc(F)c4)cnc3N)nc2c1`, with 6.45%.
The same measure for `COc1ccc(C2CCN(C#N)C2)cc1OC1CCCC1` (centres undefined): 11.3%; for `CCc1ccc(OCCCON2C(=N)N=C(N)NC2(C)C)cc1`: 6.29%.
As for `COc1ccccc1OCCN(CC(O)COc1cccc2[nH]c3ccccc3c12)CC(O)COc1cccc2[nH]c3ccccc3c12` (centres undefined), the IFI was 3.1%.
Take `CN1CCCC1CCNc1ncc2c(-c3ccc(NC(=O)Nc4cc(C(F)(F)F)ccc4F)c(F)c3)nn(C)c2n1` (centres undefined): the IFI was 14.4%.
The same measure for `CN(C)CCNC(=O)c1ccc(-c2ccc3c(Nc4ccccc4)c(C(N)=O)cnc3c2)cc1`: 3.13%; for `CC1=C(C(=O)OC(C)C)C(c2ccccc2Cl)C2=C(CC(c3ccccc3)CC2=O)N1` (centres undefined): 3.33%.
The same measure for `COc1ccc(Nc2ncc3c(-c4cccc(NC(=O)c5ccc(N)cc5)c4)c[nH]c3n2)cc1OC`: 8.7%; for `Cc1ccc(NC(=O)c2ccc3ncccc3c2)cc1OC1CCN(CCC(C)C)CC1`: 3.33%; for `COc1ccc(CNCc2ccc(-c3cccc(-c4nc5cc(C(F)(F)F)ccc5[nH]4)c3)cc2)cc1`: 14.3%.
The same measure for `CCCCCCCC(=O)N[C@@H](Cc1ccccc1)C(=O)N[C@H](C(=O)O)C(C)C` (Octanoyl-Phe-Val-OH): 0%; for `O=C(Nc1cccc(-c2cccc(-c3nc4cc(F)ccc4[nH]3)c2)c1)c1csnn1`: 2.7%.
Turning to `Cc1cccc2nc(-c3ccc(-c4ccc(NC(=O)Nc5cccc(C#N)c5)cc4)cc3)[nH]c12`, the IFI is -0%.
The same measure for `CCCCC(=O)NC(c1cccs1)c1cc(Cl)c2cccnc2c1O` (centres undefined): 4.96%.
On to `O=C(Nc1ccc(CN2CCN(S(=O)(=O)c3cccc(Cl)c3)CC2)cc1)c1cccs1`, for which the IFI is 3.7%.
For `NS(=O)(=O)c1cccc(N/C=C2\C(=O)Nc3ccc(S(=O)(=O)Cc4c(Cl)cccc4Cl)cc32)c1`, the IFI is 2.27%.
Consider `CCOC(=O)C(C(=O)OCC)c1nc(C)ns1`, for which the IFI was determined as 0.74%.
`O=C(Nc1cn(-c2ccc(OCc3cccc(F)c3)c(Cl)c2)c2ncncc12)c1ccncc1` came in with an IFI of 0.72%.
The same measure for `Cc1cc(C)cc(OCC(O)CN(Cc2cc(Cl)cc(Cl)c2)C(=O)Nc2ccccc2Cl)c1` (centres undefined): 1.41%; for `O=C(Nc1ccc(N2CCCN(Cc3cccc(F)c3)CC2)cc1)c1cccs1`: 5.71%; for `c1cc(Nc2nc(-c3ccc(-c4csc(Nc5ccncc5)n4)cc3)cs2)ccn1`: 9.66%.
Then `O=c1cc(NCCCNCc2cc(Cl)cc(Cl)c2OCc2ccc(Cl)cc2)[nH]c2ccccc12`, with 6.34%.
Then `CNCc1cccc2nc(-c3csc(Cc4cc(Cl)ccc4OCC(C)C)n3)[nH]c12`, with 5.08%.
Take `Nc1ncc(-c2ccccc2)cc1/C=C/c1cccnc1`: the IFI was 2.14%.
Then `CCCc1cc(Cc2cnc(N)nc2N)ccc1OCCCCCC(=O)O`, with 0%; and `COc1ccc(NC(=O)[C@H](Cc2ccccc2)Nc2cc(C)nc(NCc3ccccc3C)n2)cc1`, with 4.65%; and `CCN1CCN(c2cc(C)c3cc(NC(=O)c4ccc([N+](=O)[O-])c(C)c4)ccc3n2)CC1`, with 4.05%.
The same measure for `CCNc1c2ccc(Cl)cc2nc2ccc(OC)cc12`: 2.11%.
Then `Cc1cc(NC(=O)c2cccs2)ccc1OC1CCN(Cc2ccc(C#N)cc2)C1` (centres undefined), with 5.97%.
Turning to `COc1cccc(-c2cccc(NC(=O)C3CCN(Cc4ccc(O)cc4)CC3)c2)c1`, the IFI is 2.38%.
The same measure for `CCCCN(CCCC)CCC(O)C(=Cc1ccc(Cl)cc1Cl)c1ccc(C(F)(F)F)cc1N` (centres undefined): 0%.
The same measure for `COc1cccc(CN2CCN(C(c3ccccc3)c3ccccc3)CC2)c1O`: 5.56%; for `O=C(CC1SC(N2N=C(c3cccs3)CC2c2ccccc2)=NC1=O)Nc1ccc(Cl)cc1` (centres undefined): -0%; for `Cc1ccc(O)c(-c2cc(C(=O)Nc3ccc(S(=O)(=O)N4CCCCC4)cc3)[nH]n2)c1`: 9.18%.
The molecule `CC(=O)Nc1cc(C(=O)Nc2cccc(-c3cccc(-c4nc5cc(C(F)(F)F)ccc5[nH]4)c3)c2)ccc1C` displayed an IFI of 5.08%.
Then `COc1cc2c(Nc3cccc(NC(=O)c4ccccc4)c3)ncnc2cc1OCCCN1CCOCC1`, with 1.54%; and `O=C(NCc1cccc(F)c1)Nc1cccc(-c2ccc(-c3nc4cc(F)ccc4[nH]3)cc2)c1`, with 1.01%.
With `CCCCCn1c(Sc2ccc(C#N)c([N+](=O)[O-])c2)nnc1-c1ccccc1`, the IFI was 5.67%.
The same measure for `N#CN1CC[C@H](CS(=O)(=O)c2cccc(Br)c2)C1`: 0%; for `Cc1ccccc1OCCCN1CCN(CC(c2ccc(F)cc2)N2CCN(C(C)C)CC2)CC1` (centres undefined): 9.23%.
Then `CCCCCCSc1nnc(COc2cccc3ccccc23)n1-c1ccc(OC)cc1`, with 5.43%; and `CC(C)(C)NCCN(Cc1ccc(-c2ccc(C(F)(F)F)cc2)cc1)C(=O)Cn1c(CCc2cccc(F)c2F)nc(=O)c2c1CCC2`, with 10.9%; and `Cc1cccc2nc(-c3ccc(-c4cccc(CNCCc5ccncc5)c4)cc3)[nH]c12`, with 7%.
Take `CCCCCc1cc(OC(=O)CCCN(CC)CC)c2c(c1)OC(C)(C)C=C2C1=CCN(Cc2ccc3ccccc3c2)CC1`: the IFI was determined as 15.9%.
`Fc1ccc(C=NN=c2cc[nH]c3ccc(C(F)(F)F)cc23)cc1`: the IFI was determined as 0%.
For the molecule `O=S(=O)(NC1CCN(c2ccnc3cc(Cl)ccc23)C1)c1cccs1` (centres undefined), the IFI came to 1.56%.
Turning to `O=C(Nc1ccnc2ccccc12)NC1CCN(CCc2ccccc2)CC1`, the IFI came out at 1.44%.
The same measure for `CCc1ccc(S(=O)(=O)Nc2cccc(CCN3CCC(N4CCCCC4)CC3)c2)cc1`: 4.84%.
Then `CCOc1ccc2nc(C)cc(N/N=C/c3cccc([N+](=O)[O-])c3)c2c1`, with 0.7%; and `COc1ccc(C2N=C(N)N=C(N)N2c2ccc(Cl)cc2)cc1OC` (centres undefined), with 1.43%; and `CCOc1ccc2c(c1)N(C(=O)C=Cc1ccccc1)C(C)(C)c1ssc(=S)c1-2`, with 2.19%.
Then `CCCNCc1ccc(-c2ccc(CN(CCOC)C(=O)CC3CCCC3=O)cc2)nc1` (centres undefined), with 0.69%; and `CCCCCCOc1ccc(C(=O)NCCCC2CCCN(CCCCCNC(=O)C=Cc3ccc(Cl)c(Cl)c3)C2)cc1` (centres undefined), with 6.87%; and `Cc1c(C(=O)N2CCCC(C(F)(F)F)C2)sc2cccc(F)c12` (centres undefined), with 2.94%.
As to `O=C(C=Cc1cccs1)Nc1ccc(-c2nc3ccccc3[nH]2)cc1`, the IFI worked out at 2.07%.
In the case of `CCC1(CC)CN(c2ccccc2)c2ccc(O)cc2S(=O)(=O)C1CC(C)C` (centres undefined), the IFI stood at 1.45%.
Then `O=C(NC(c1ccc(Cl)cc1)c1ccc2cccnc2c1O)c1ccccc1` (centres undefined), with 3.52%.
The same measure for `CC1CN(c2cnn(C/C=C/c3ccc(NC(=O)c4ccc5nonc5c4)cc3)c(=O)c2Cl)CC(C)N1` (centres undefined): 7.59%; for `COc1cccc(-c2nc(Nc3ccncc3)c3ncn(C)c3n2)c1`: 3.65%; for `O=C(NCCCCN1CCC(c2ccc3c(c2OC(=O)c2ccc(NC(=O)c4ccc(Cl)cc4)cc2)CCCC3)CC1)c1ccc(NC(=O)c2ccc(Cl)cc2)cc1`: 9.48%.
Then `O=c1cc(NCCCNCc2cccc(Oc3ccccc3)c2)[nH]c2ccccc12`, with 5.07%; and `CCc1cn2c3c(cc(C(=O)N[C@@H](Cc4ccccc4)[C@H](O)CNC4CCOCC4)cc13)N(CC(F)(F)F)S(=O)(=O)CC2`, with 3.68%.
Molecule `CC(C)C[C@H](Nc1ccnc(NCC2CCCCC2)n1)C(=O)NCCc1ccccc1` gave an IFI of 8.89%.
The same measure for `Cc1ccc(NC(=O)Nc2ccc(I)c(OCCN(C)C)c2)cc1Cl`: 5.76%.
The same measure for `CC(C)c1cc2c(cc1O)C(Cc1ccccc1Cl)N(C)CC2` (centres undefined): 0.76%; for `N#Cc1ccc(-c2ccc(C(=O)NCCCCN3CCC(c4ccc5c(c4OCc4ccccn4)CCCC5)CC3)cc2)cc1`: 5.5%.
Then `N=C(N)NC(=O)Nc1cc(Cl)c(Br)c(Cl)c1`, with 5.65%; and `CCc1ccc(-n2c(NC(=O)c3ccccc3)nc3ccc(S(=O)(=O)NC(C)C(C)C)cc32)cc1` (centres undefined), with 3.85%.
`Cc1ccc(S(=O)(=O)NC2=NC(=N)N(OCc3ccc(Cl)c(Cl)c3)C(C)(C)N2)cc1` came in with an IFI of -0%.
Then `CS(=O)(=O)CCOCc1ccc(-c2ccc3ncnc(Nc4ccc(OCc5cccc(F)c5)c(Cl)c4)c3c2)o1`, with 3.6%; and `COc1cc2c(c(OC)c1[N+](=O)[O-])C=CC1(O2)N(C)c2ccc([N+](=O)[O-])cc2C1(C)C` (centres undefined), with -0%.
The same measure for `CCCCCCCCc1c(C)nc(C)c(Br)c1O`: 1.44%; for `O=c1c2sc(-c3ccc(Cl)cc3)cc2ncn1Cc1ccc(OCCN2CCCC2)c2ccccc12`: 6.34%; for `CC1CN(C(=O)c2sc3ccccc3c2Cl)CC(C)O1` (centres undefined): -0%.
Then `CN(C)CCCN1CCN(C(=O)c2cccc(-c3noc(C(F)(F)F)n3)c2)CC1`, with 3.67%.
`COc1ccc(Cc2c(C)nc3nc(N)nc(N)c3c2C)cc1` displayed an IFI of 2.21%.
As for `COc1cc(N(C)Cc2cnc3nc(N)nc(N)c3n2)cc(OC)c1OC`, the IFI is 5.71%.
The same measure for `Oc1cccc(-c2nc(-c3ccccc3)c(-c3ccc4oc5ccc(-c6[nH]c(-c7cccc(O)c7)nc6-c6ccccc6)cc5c4c3)[nH]2)c1`: 3.03%.
Then `CS(=O)(=O)c1ccc(CNCc2cccc(-c3cccc(-c4nc5cc(C(F)(F)F)ccc5[nH]4)c3)c2)cc1`, with 1.92%; and `COc1ccc(S(=O)(=O)N2CCC(NS(=O)(=O)c3ccc(F)cc3)CC2)cc1`, with 0%.
`Nc1nc(N)c2c(CCc3ccc(Cl)c(Cl)c3)cccc2n1` came in with an IFI of 10.8%.
The same measure for `COc1ccc(Cl)cc1N1CCN(CCCNC(=O)c2ccc(-c3nc4cc(Cl)c(C)cc4[nH]3)s2)CC1`: 1.46%; for `CCOc1c(CNCCCNc2nc3ccccc3[nH]2)cc(Br)cc1OC`: 0.71%.

The record behind these values is ChEMBL document CHEMBL1157539, “Thousands of chemical starting points for antimalarial lead identification” (Nature, 2010).
